The campaign covered roughly 310,000 compounds. About 2,200 (0.71%) showed an effect of 50% or more. Effects have a minus sign here. The list shows a part of the results.
Biological target: human ether-à-go-go-related gene (hERG) potassium channel (human, UniProt Q12809)
Assay: primary screen, population patch clamp on CHO cells stably expressing hERG

Sequence of human ether-à-go-go-related gene (hERG) potassium channel (Q12809 whole entry, looked up): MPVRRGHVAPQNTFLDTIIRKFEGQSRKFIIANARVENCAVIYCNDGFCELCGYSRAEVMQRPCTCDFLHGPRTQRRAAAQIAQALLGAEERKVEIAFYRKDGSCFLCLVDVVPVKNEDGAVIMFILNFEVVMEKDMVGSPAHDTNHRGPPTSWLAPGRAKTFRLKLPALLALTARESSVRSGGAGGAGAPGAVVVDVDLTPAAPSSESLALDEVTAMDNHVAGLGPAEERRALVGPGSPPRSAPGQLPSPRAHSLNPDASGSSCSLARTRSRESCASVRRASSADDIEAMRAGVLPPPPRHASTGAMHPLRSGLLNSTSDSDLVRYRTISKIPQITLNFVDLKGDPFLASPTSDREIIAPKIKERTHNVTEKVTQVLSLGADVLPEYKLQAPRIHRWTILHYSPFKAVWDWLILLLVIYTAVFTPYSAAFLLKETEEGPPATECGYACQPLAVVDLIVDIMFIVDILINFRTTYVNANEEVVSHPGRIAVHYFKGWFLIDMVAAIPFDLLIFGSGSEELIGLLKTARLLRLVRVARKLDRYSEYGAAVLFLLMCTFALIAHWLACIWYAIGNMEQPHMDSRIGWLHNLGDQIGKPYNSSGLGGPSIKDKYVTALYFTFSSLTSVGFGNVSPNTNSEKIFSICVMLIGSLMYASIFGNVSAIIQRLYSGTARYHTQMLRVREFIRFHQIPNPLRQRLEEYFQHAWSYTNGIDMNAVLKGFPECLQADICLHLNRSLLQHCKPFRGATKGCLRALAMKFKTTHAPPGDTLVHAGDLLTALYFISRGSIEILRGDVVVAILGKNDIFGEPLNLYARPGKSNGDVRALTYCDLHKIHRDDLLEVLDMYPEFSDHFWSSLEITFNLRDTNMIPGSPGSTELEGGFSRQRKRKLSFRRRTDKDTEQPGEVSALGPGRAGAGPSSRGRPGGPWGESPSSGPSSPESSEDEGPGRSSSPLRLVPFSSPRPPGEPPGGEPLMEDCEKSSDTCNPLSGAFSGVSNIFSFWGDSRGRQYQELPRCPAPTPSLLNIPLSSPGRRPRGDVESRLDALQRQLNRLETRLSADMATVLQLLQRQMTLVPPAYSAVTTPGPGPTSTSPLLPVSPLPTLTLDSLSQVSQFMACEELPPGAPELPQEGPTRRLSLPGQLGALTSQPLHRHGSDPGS

Structure (SMILES)	hERG current change (%, negative = inhibition) at 1uM
COc1ccccc1NC(=S)NC(=O)CCCOc1ccc(Cl)cc1Cl	21.5%
COc1ccc(OCC(O)CN2CCN(c3ncccn3)CC2)cc1.Cl (stereo not shown)	1.7%
COc1ccc(OC)c(S(=O)(=O)Nc2ccc3oc(C)c(C(C)=O)c3c2)c1	14.2%
CC(=O)Oc1ccc(N(C(C)=O)S(=O)(=O)c2ccc(C)c([N+](=O)[O-])c2)cc1	7.73%
CC(C)(C)c1ccc(C(=O)N2CCCN(C(=O)c3ccc(C(C)(C)C)cc3)CC2)cc1	5.66%
O=C(COc1ccccc1)N1CCN(Cc2c[nH]c3ccccc23)CC1	-18.1%
Cc1ccc(Sc2ccc(C(=O)NC(C)C)cc2[N+](=O)[O-])cc1	6.1%
CN1C(=O)C(C)(C)c2cc(S(=O)(=O)N3CCCCCC3)ccc21	11.8%
O=c1[nH]cccc1-c1nc2ccccc2n1Cc1ccccc1F	15.5%
NC(N)=N/N=C/c1cc([N+](=O)[O-])ccc1O	5.33%
COc1ccc(N=Cc2[nH]c3ccccc3c2O)cc1	10.7%
CCOc1cc(C2C(C(=O)OC)=C(C)N=C3SCCC(=O)N32)ccc1OC(C)=O (stereo not shown)	14%
COc1cccc(CN(C)C(=O)CNC(=O)c2sc3ccccc3c2Cl)c1OC	6.71%
O=C(CS(=O)(=O)c1ccccc1)N1CCN(c2ccccc2)CC1	11.9%
Cc1ccccc1NC(=O)C1Cc2ccccc2CN1C(=O)c1ccco1 (stereo not shown)	7.84%
COc1ccccc1C(=O)Nc1cccnc1	10.9%
Cc1cc[n+](C2=C([O-])c3ccccc3C(=O)/C2=N\S(=O)(=O)c2cccs2)cc1C	7.95%
CC(=O)NC1(c2ccc(F)cc2)CCN(C(=O)c2c(F)cccc2F)CC1	8.22%
Cn1ccsc1=NC(=O)c1cccc(OC(F)F)c1	4.36%
CC(C)C(C)(NC(=O)c1cccn(Cc2ccc3c(c2)OC(F)(F)O3)c1=O)C(N)=O (stereo not shown)	1.98%
O=C(CCN1C(=O)c2ccccc2S1(=O)=O)Nc1cccc(F)c1	11.4%
COc1cc(Cl)c(C)cc1NC(=O)c1ccc2c(SCC(=O)O)c3c(nc2c1)CCCC3	6.13%

Structure (SMILES)	hERG current change (%, negative = inhibition) at 1uM
COc1cccc(COC(=O)CCNC(=O)c2ccc(Br)cc2)c1OC	10.9%
O=C(Nc1ccn(Cc2ccccc2F)n1)c1ccc(COc2ccc(Cl)cc2Cl)o1	17.9%
COC(=O)c1cnn2c3c(c(C)nc12)CCCC3	9.64%
COC(=O)c1[nH]c2ccccc2c1NC(=O)CNC1CCCCC1	8.9%
O=C(NCC(c1ccco1)N1CCCCC1)c1cccc(NS(=O)(=O)c2ccc(Br)cc2)c1 (stereo not shown)	7.15%
CCN(CC)CCNC(=O)c1ccc(-n2c(C)cc3c2CCCC3=O)cc1	10.7%
Cc1cc(-c2ccc(C)c(S(=O)(=O)NCCCN3CCN(c4ccccc4F)CC3)c2)on1	13.5%
N=C(SC1CC(=O)N(c2ccc(F)cc2)C1=O)N1N=C(c2ccccc2)CC1c1ccccc1 (stereo not shown)	19.8%
O=C(CNCc1ccco1)Nc1cccc(S(=O)(=O)N2CCCCC2)c1.O=C(O)C(=O)O	0.38%
CCn1c(CC(=O)Nc2ccccc2)nnc1SCC(=O)NC1CCCC1	5.86%
CCn1c2c(c3cc(Cl)ccc31)CCCC2=O	9.17%
COc1ccc(-c2nc3ccccc3o2)cc1NC(=O)CSc1ccc(Cl)cc1	33.5%
O=c1c(Cl)c(NCCO)ncn1-c1ccccc1	-0.547%
C/C(=N/Nc1ccc([N+](=O)[O-])cc1)c1ccc(C)cc1C	8.95%
c1ccc(-c2csc(Nc3ccccn3)n2)cc1	10.4%
S=C(Nc1cccnc1)N1CCc2ccccc21	11.5%
CC(C)c1ccccc1OCCCCCN1CCOCC1	6.57%
[Br-].c1ccc(C[n+]2csc3ccccc32)cc1	11.5%
COc1cc(C(C)=O)ccc1COc1ccc(C(=O)OCC(N)=O)cc1OC	4.9%
CCOC(=O)c1cnc2ccc(C(=O)OC)cc2c1NCCc1ccc(OC)c(OC)c1	0.861%
O=C(Nc1nc2cc3c(cc2s1)OCO3)c1ccc(N2C(=O)CCC2=O)cc1	14.6%
CC(C)=CC1C(C(=O)Nc2ccc(S(=O)(=O)N3CCOCC3)cc2)C1(C)C (stereo not shown)	7.69%

Structure (SMILES)	hERG current change (%, negative = inhibition) at 1uM
CCCC(CCC)C(=O)OC[N+](C)(C)CCOC(=O)C(O)(c1ccccc1)C1CCCC1.[Cl-] (stereo not shown)	10.9%
COc1ccc(Nc2nc(N)nc(CSc3n[nH]c(-c4ccccc4)n3)n2)cc1	-0.95%
CCOc1ccc(N2C(=O)CC(N(CCc3ccc(OC)cc3)C(=O)c3cccc(F)c3)C2=O)cc1 (stereo not shown)	-23.2%
Cc1cc(C(F)(F)F)nc(-n2cc(-c3ccccc3)nn2)n1	-1.75%
[Br-].c1ccc(C[n+]2ccc3ccccc3c2)cc1	11.1%
COc1cc(C(=O)N(CCc2ccccc2)C2=CC3CCC(C2)N3C)cc(OC)c1OC.Cl.O (stereo not shown)	-13.5%
O=C1CSC(=S)N1c1cccc(F)c1	13.1%
COC(=O)[C@@H]1C[C@H]2CC[C@H](O)C[C@H]2N1Cc1ccc(Cl)cc1	7%
CC(=O)CCc1ccc(OCC(O)CNCCOc2ccc(C)cc2)cc1 (stereo not shown)	-13.2%
Cc1ccccc1OC(=O)c1cccnc1	9.31%
CC1=NN(C(=O)c2c(Br)c(C)nn2C)C(O)(C(F)(F)F)C1 (stereo not shown)	3.91%
CCC(Oc1ccc(C)cc1)C(=O)Nc1ccc(S(=O)(=O)Nc2cc(C)on2)cc1 (stereo not shown)	20.5%
O=C1ON=C(c2ccccc2)/C1=C\c1ccco1	3.9%
COCCNC(=O)/C(C#N)=C\c1ccc(CNC(=O)C(=O)Nc2ccc(C)c(C)c2)o1	-14.9%
Cc1nccn1CC1CCc2c(c3ccccc3n2C)C1=O.Cl.O (stereo not shown)	0.51%
Cc1nnc(SCC(=O)NCc2ccccc2Cl)n(N)c1=O	-1.98%
Cc1ccc(OCCCn2c(=O)oc3ccccc32)cc1	4.19%
S=c1oc(-c2ccncc2)nn1CCc1ccncc1	11%
COC(=O)CN1C(c2ccccc2O)Nc2ccc(Br)cc2C1c1ccccc1 (stereo not shown)	0.533%
COc1ccc(Cl)cc1C(=O)Nc1nc2ccccc2[nH]1	23.3%
O=C(Cc1c[nH]c2ccccc12)NCc1ccc(Cl)cc1	15.7%
CC12COC3(C(=O)Nc4ccc(F)cc4)CC1CCC32C (stereo not shown)	2.06%

Structure (SMILES)	hERG current change (%, negative = inhibition) at 1uM
CC(C)c1ccc(NC2CCCN(C(=O)c3ccoc3)C2)cc1 (stereo not shown)	15%
Cc1ccc(NS(=O)(=O)c2cc(Br)cnc2N)c(Cl)c1	15.1%
Cc1ccc(Cn2c([N+](=O)[O-])cnc2C)cc1	12.4%
COc1cc(/C=N/NC(=O)COc2cccc(F)c2)ccc1OS(=O)(=O)c1ccc(C)cc1	12.9%
CC(C)NC(=O)CSc1ncccc1-c1nc2ccccc2[nH]1	4.5%
CC(=O)Nc1ccc(NC(=O)CS(=O)(=O)Cc2ccccc2)cc1	-0.496%
COc1ccccc1CCN=C(N)NS(=O)(=O)c1ccccc1	-10.2%
CCCCOC(=O)c1ccc(OC(=O)c2cccnc2)cc1	5.73%
CCCn1c(SC/C(O)=C(\C#N)c2nc3ccccc3[nH]2)n[nH]c1=O	10.2%
COc1ccc(OC)c(N=Cc2c(O)[nH]c(=O)[nH]c2=O)c1	14.4%
Cl.OCCN1CCN(CCOc2ccccc2-c2ccccc2)CC1	6.46%
Cc1ccc(N2C(=O)N3[C@H](c4ccc(Br)cc4)[C@@H]4C(=O)N(C(C)(C)C)C(=O)[C@@H]4[C@]3(C)C2=O)cc1	6.72%
COc1ccc2sc(C)[n+](C)c2c1.[I-]	14.4%
Cc1ccc(C(=O)N2CCN(c3ccccc3F)CC2)cc1S(=O)(=O)N1CCOCC1	16.1%
CC(/C=C1\SC(=O)N(CC(=O)Nc2cccc(O)c2)C1=O)=C\c1ccccc1	18.4%
O=C(CCN=C1NS(=O)(=O)c2ccccc21)OCC(=O)c1ccccc1	-5.87%
CC(C)(C)NC(=O)COC(=O)c1cncc(Br)c1	3.74%
COc1cc(COCC(O)CN2CCc3ccccc3C2)cc(OC)c1OC.Cl (stereo not shown)	7.29%
CC(C)(C)n1c(O)c(C=Nc2ccc3c(c2)CCC3)c(=O)[nH]c1=O	10.1%
CCN(CC)S(=O)(=O)c1ccc(Nc2ccc(-c3ccc4c(c3)OCCO4)nn2)cc1	10.1%
CCCCn1c(N)c(N(CCOC)C(=O)CSCC(=O)Nc2cccc(C)c2)c(=O)[nH]c1=O	8.98%
Cc1ccccc1Cn1c(CN2CCN(c3ccc(F)cc3)CC2)nc2c1c(=O)n(C)c(=O)n2C	6.86%

Reference: paper PMC4336329 (PLoS ONE, 2015)
